B1: LINE1-mini (parent)
chain: GGCAGAGCUCAACACAGCGUGGCAAAGUGGCUGUGGCUAGACUGCC

Read counts are not given, so values of variants with three or more changes are uncertain.

In the data set the parent is B1. The data set can be described thus: self-cleavage, relative activity (ratio to wild type); higher = more cleavage; in vitro, sequencing; the parent is a self-cleaving ribozyme.
U9A A12C A16G: the self-cleavage was found to be 0.01.
Turning to U9A A14U C31G, the self-cleavage turned out to be 0.01.
For U9A A11C C15U C23A C37U, the self-cleavage turned out to be 0.01.
As for U9A A26U G36A G40C A41U, the self-cleavage was 0.04.
Take U9A A16C C18A A24U: the self-cleavage was found to be 0.29.
In the case of C8U G40U C42A it was 0.08; in that of C8U G40U C42U, 0.19.
In the case of U9A A26C G40U it was 0.02.
For the variant C8U G40A G44C, the self-cleavage was determined as 0.07.
On to U9A A11C C18A G22C U34A, for which the self-cleavage is 0.02.
In the case of C8U U20C A26C A41C, the self-cleavage is 0.05.
Consider C8U U9C G27U, for which the self-cleavage was 0.07.
With U9A A12U U43C, the self-cleavage came out at 0.05.
On to U9A A16C G40C C46A, for which the self-cleavage amounted to 0.07.
As to U9A A14G U20C A24U, the self-cleavage is 0.07.
C8U G36C C45U: the self-cleavage was determined as 0.43.
Regarding C8U U28C G40C, the self-cleavage amounted to 0.08.
In the case of U9A A14G G33U U34C G36A, the self-cleavage amounted to 0.08.
In the case of C8U U32A G40A A41G it was 0.19; in that of U9A C10A A39U, 0.04.
C8U U32A G33A: the self-cleavage was 0.06.
As to U9A A11U G40C, the self-cleavage came to 0.
For the variant U9A A11C C31A, the self-cleavage is 0.
In the case of C8U U20C G22C A25U G30A A41C it was 0.09.
Regarding U9A A39U U43C, the self-cleavage amounted to 0.08.
As for C8U G30A G40U C42U, the self-cleavage is 1.44.
In the case of U9A A24C A25C it was 0.13; in that of U9A A26C G27A A41U, 0.09; in that of U9A C10A C18A C23A, 0.03.
In the case of U9A A16U A24C C31A it was 0.02; in that of U9A A26U C42G, 0.02.
As to C8U U34C C37A, the self-cleavage amounted to 0.05.
In the case of C8U U9A G17A C42A G44C C46G, the self-cleavage was 0.15.
For U9A A25C G30U U34G, the self-cleavage is 0.04.
In the case of C8U G35A G40C it was 0.04; in that of C8U U9A C10G C15G, 0.01.
As to C8U U28C U32C C42G, the self-cleavage turned out to be 0.29.
As to U9A A11G C42U, the self-cleavage turned out to be 0.01.
Regarding U9A A25U C46G, the self-cleavage was found to be 0.07.
Take C8U U9C U32C: the self-cleavage stood at 0.05.
In the case of U9A A16U G29U it was 0.07.
In the case of C8U U9A G19A A24G G40U it was 0.1.
In the case of U9A A14U C18A G35U A41U C45U, the self-cleavage amounted to 0.09.
Consider U9A A16C A24G C45G, for which the self-cleavage was found to be 0.01.
Turning to C8U U9C G33U G35A, the self-cleavage is 0.03.
As to C8U U9G G19A C23G U32A A41U C42A, the self-cleavage came to 0.13.
With U9A A11G C18G C37G, the self-cleavage was 0.
As for C8U U9C G22A C37G A41G C45A C46A, the self-cleavage amounted to 0.01.
In the case of C8U U20C A26G it was 0.02.
Take C8U U20G C23G G40U: the self-cleavage stood at 0.41.
For the variant C8U U9C G21C, the self-cleavage was determined as 0.01.
C8U U9C A26G C31G: the self-cleavage turned out to be 0.02.
For the variant C8U U28C G40U U43G, the self-cleavage amounted to 0.23.
Take U9A A16U G19U G27U U28C G33U: the self-cleavage was determined as 0.22.
As to C8U G40C C45G, the self-cleavage was 0.06.
As to C8U U9A G17U A26G G30A C46A, the self-cleavage came to 0.05.
Regarding U9A A12G G22C C23A, the self-cleavage is 0.08.
U9A A14C C46A: the self-cleavage came to 0.02.
In the case of U9A A16C C45U it was 0.01.
With C8U U9A A12U G21C G30U, the self-cleavage stood at 0.09.
Consider C8U U28G C37U, for which the self-cleavage is 0.09.
As to C8U U9A C31G U32A U34A, the self-cleavage was found to be 0.23.
For U9A A25G G27C U34C, the self-cleavage is 0.31.
In the case of C8U U9A G19A it was 0.32; in that of U9A A12C A39C A41C C42U, 0.
U9A C10A A16G G40A U43G G44A: the self-cleavage amounted to 0.01.
In the case of U9A A24G G29U it was 0.15.
For C8U G36U C46A, the self-cleavage came out at 0.2.
U9A A24U C46U: the self-cleavage came to 0.05.
For U9A A24C C42G, the self-cleavage worked out at 0.
Take U9A A14U U32G C37U: the self-cleavage was determined as 0.03.
With U9A A41C G44U, the self-cleavage was 0.08.
With C8U G30U G35A, the self-cleavage stood at 0.42.
U9A A26G G36A: the self-cleavage amounted to 0.53.
Take C8U G33U A39G C46A: the self-cleavage was 0.17.
Turning to U9A A41G C45G, the self-cleavage worked out at 0.08.
In the case of U9A A14G C23U G40A it was 0.12.
U9A A11G G33C C37U G40A: the self-cleavage was determined as 0.02.
In the case of U9A A11U C15A A25G U32C G33A C37A, the self-cleavage was 0.02.
As for U9A A16C U20G, the self-cleavage worked out at 0.15.
Consider U9A A12U C18A G21U, for which the self-cleavage turned out to be 0.13.
As to U9A A26U G35A, the self-cleavage came to 0.02.
With C8U U43G C45U, the self-cleavage was 0.17.
C8U G44C C46A: the self-cleavage stood at 0.13.
For the variant C8U G40U G44C, the self-cleavage is 0.34.
In the case of U9A A12C A16G A24C U34G it was 0.03; in that of U9A A14G G17A G36U, 0.04.
With U9A A16U A41C, the self-cleavage worked out at 0.04.
Regarding U9A A12U A16U C18U G22A U28C C31A, the self-cleavage is 0.01.
In the case of C8U U9A A26G U34C G40C it was 0.11; in that of U9A A11U C31G, 0.02; in that of U9A A16C G30U C37A, 0.02.
With C8U U32G G36A A39C, the self-cleavage came to 0.03.
In the case of U9A A16C A39G it was 0.02.
Take U9A A25U C37A: the self-cleavage was 0.17.
In the case of U9A A11C C13U A25C G27U it was 0.02; in that of C8U G36C U43G C46A, 0.08.
On to C8U U20A G35A C42U, for which the self-cleavage was found to be 0.1.
On to C8U U28A G36C, for which the self-cleavage stood at 0.18.
Consider C8U G36U G40U C42G C45G, for which the self-cleavage is 0.26.
C8U G35C C37U: the self-cleavage was determined as 0.06.
Turning to C8U U9A U28A C31G G44U, the self-cleavage is 0.06.
C8U G30A G35C U43C: the self-cleavage is 0.5.
For the variant C8U U32G G35U, the self-cleavage is 0.09.
In the case of U9A A16C G17U U20G C23A C45A it was 0.19; in that of C8U U9G A12G A16G A24C, 0.03; in that of U9A A16C G35C, 0.06.
For the variant U9A A41C C42A, the self-cleavage came out at 0.02.
In the case of C8U G40C U43C it was 0.09; in that of C8U U20A G30C C31U U32G C37A G44U, 0.04; in that of C8U U9A G29C G33U A39C C46U, 0.18.
On to U9A A12U A26U, for which the self-cleavage is 0.04.
With C8U U20A G27U U28G G30C, the self-cleavage stood at 0.12.
In the case of C8U U9C G44C it was 0.04; in that of C8U U9C A16C U20A, 0.01; in that of U9A A25C A39G, 0.04.
In the case of U9A A11U G30U, the self-cleavage worked out at 0.02.
In the case of U9A A11G G33U C45A it was 0.02.
Regarding U9A C10A C13U, the self-cleavage came to 0.03.
For the variant C8U U20A G22C C23G G44U, the self-cleavage was 0.04.
Turning to C8U U9G G17U C37G, the self-cleavage came out at 0.04.
As to U9A A12G A26U G27A, the self-cleavage was determined as 0.04.
Turning to U9A A16C G22A A26U C31U U34G, the self-cleavage was determined as 0.03.
In the case of C8U G35U C45A it was 0.13; in that of U9A A14C U20A C45U, 0.01.
In the case of U9A A12U G27A G35U G40C it was 0.
On to U9A A11G C37G, for which the self-cleavage is 0.03.
Consider U9A A16G G17U A26C, for which the self-cleavage amounted to 0.04.
For the variant C8U U9G C37U A39C G40U C46A, the self-cleavage is 0.02.
Regarding C8U U9G U43G, the self-cleavage was found to be 0.08.
On to U9A A11U G30U U34A, for which the self-cleavage is 0.03.
With C8U U9G G19A, the self-cleavage worked out at 0.32.
For the variant U9A A25U G35A, the self-cleavage came to 0.08.
On to C8U G30C C37G, for which the self-cleavage was 0.14.
In the case of C8U U20C G21U U28A it was 0.09; in that of U9A A12U C23G G30U, 0.
As to C8U U32A C37G, the self-cleavage is 0.26.
As to U9A A24G G27C G33C U34C, the self-cleavage is 0.06.
In the case of C8U G30A A41C, the self-cleavage stood at 0.1.
For C8U U20G G33U A41U, the self-cleavage was 0.04.
For the variant U9A A11C A26U, the self-cleavage stood at 0.02.
In the case of C8U U9C C10A C31G G33A C37G it was 0.02.
On to C8U G35C G36U C37A G44C C46G, for which the self-cleavage turned out to be 0.31.
For the variant C8U G36C A41C, the self-cleavage was 0.18.
U9A A16C C31G C42G: the self-cleavage came to 0.
U9A A11G C15G G30U: the self-cleavage was 0.03.
In the case of U9A A11U G33C, the self-cleavage was 0.02.
For the variant C8U U20G A24G, the self-cleavage worked out at 0.1.
Take U9A A14U G30U: the self-cleavage stood at 0.03.
Regarding C8U U28G G44U, the self-cleavage is 0.41.
On to C8U G30U U32A, for which the self-cleavage was found to be 0.05.
For U9A A11U C13U, the self-cleavage worked out at 0.06.
As for U9A A25G G33A, the self-cleavage came to 0.22.
In the case of C8U G30A U32G A41G it was 0.06.
As for U9A A25G C37G U43A, the self-cleavage worked out at 0.04.
U9A A24U A41U: the self-cleavage is 0.32.
For the variant U9A A11U A24U A26U C31G, the self-cleavage worked out at 0.
Consider U9A A12U C13U, for which the self-cleavage turned out to be 0.39.
In the case of C8U U9C U20C C45A, the self-cleavage was determined as 0.01.
Take C8U U9C G17A C18G G29U U34C G35A: the self-cleavage was 0.05.
On to U9A A11C G21C G22C A25G G27U C37G, for which the self-cleavage is 0.01.
On to C8U G30A C37A, for which the self-cleavage stood at 0.06.
As to C8U U9G G21U, the self-cleavage came to 0.02.
Take U9A A14U C15A G17C C23G A24C: the self-cleavage was determined as 0.06.
Take U9A A12U G21U G35C C45U: the self-cleavage stood at 0.02.
In the case of C8U U9C G22A G36U C45A it was 0.01; in that of U9A A14C C15A, 0.16.

The values above are taken from the RNAGym collection of RNA variant scans (doi:10.7554/elife.90254).
